Test results published in ChEMBL document CHEMBL4888484, “Replenishing the malaria drug discovery pipeline: Screening and hit evaluation of the MMV Hit Generation Library 1 (HGL1) against asexual blood stage Plasmodium falciparum ,using a nano luciferase reporter read-out” (2022).
Among all 150,000 compounds or so, about 540 (0.36%) showed an effect of 50% or more. This is one part of the list.

These compounds were tested on Plasmodium falciparum (assay: Primary screen in NF54 nanoGlo assay, in single point, at 2uM, 72h; a lower Z score goes with more inhibition). Settings: timepoint 72 hour.
Type: functional, Erythrocyte
In the case of O=C(NCCc1cccs1)NC1CCC2(CCOCC2)CC1, the “% Inhibition” value is reported as -11% and the Z score is reported as 1.05.
In the case of Cc1nn(C)c(C)c1CCCNC(=O)c1cccc(O)c1C, the “% Inhibition” value is reported as -1% and the Z score is reported as 0.14.
For COc1ccc(-c2nc3c([nH]2)CCN(C(=O)[C@@H](C)CN2CCCC2)C3)cc1, the “% Inhibition” value was -10% and the Z score was 1.83.
With COc1cccc(CNC(=O)Cn2cc(-c3ccccc3)c3ncnc(N4CCOCC4)c32)c1 the “% Inhibition” value was -7% and the Z score was 1.01.
With CC1CCC(NC(=O)c2csc3c2CCCC3)CC1 (configuration not stated) the “% Inhibition” value was -15% and the Z score was 1.89.
In the case of c1cc(CCNc2nc(C3CCCC3)nc3c2CCOCC3)ccn1, the “% Inhibition” value is reported as 4% and the Z score is reported as -0.39.
For CC(C)[C@H](C)NC(=O)CN(C)c1cnccn1, the “% Inhibition” value was -1% and the Z score was 0.15.
For O=C(Cc1cccs1)NC[C@H]1CN(c2ccccc2)C(=O)O1, the “% Inhibition” value was -12% and the Z score was 1.33.
COc1ccccc1NC(=O)Nc1ccc(N2CCCC2=O)c(C)c1 was tested, and the “% Inhibition” value was -11% and the Z score was 1.62.
For COc1c(Cl)cccc1NCC(=O)Nc1cc(C)nn1C, the “% Inhibition” value was -7% and the Z score was 0.71.
For CCC(CC)n1nccc1C(=O)N1CCC2(CCN(C)CC2)C1, the “% Inhibition” value was -1% and the Z score was 0.13.
For C=CCC[C@@H](CN(C)CC(=O)N(C)C)Oc1ccnc(OC)c1C#N, the “% Inhibition” value was -7% and the Z score was 1.19.
Cc1cc(C2CCC(C(=O)NCc3ccccn3)CN2C(=O)NCc2ccccc2)ccc1F (configuration not stated) was tested, and the “% Inhibition” value was -2% and the Z score was 0.31.
For Cc1cc(=O)c2cccc(C(=O)NCCN3CCC[C@H](C(N)=O)C3)c2[nH]1, the “% Inhibition” value was 1% and the Z score was -0.1.
For Cc1nc2ccccc2nc1N1CCC2(CC1)OCCO2, the “% Inhibition” value was -11% and the Z score was 1.78.
With Cc1nc(N)nc(N2CCC(Oc3ccc(F)cc3)CC2)c1CCC(=O)O the “% Inhibition” value was -13% and the Z score was 1.26.
CCOc1ccc2c(n1)CCN(C(=O)c1ccc(OC)cc1)C2 was tested, and the “% Inhibition” value was 36% and the Z score was -5.21.
For Cc1noc(C)c1Cn1nnnc1C=Cc1ccccc1, the “% Inhibition” value was 0% and the Z score was -0.05.
In the case of CCCc1cnc(NC2CCN(C(=O)CC)CC2)nc1, the “% Inhibition” value is reported as -7% and the Z score is reported as 1.31.
With Cc1ccc(Cl)cc1NC(=O)c1ccnc(-c2ccsc2)c1 the “% Inhibition” value was -2% and the Z score was 0.32.
For N[C@H](C(=O)N1CCC2(CC1)Cc1cn(nn1)CCCNC(=O)[C@H](Cc1ccccc1)NC2=O)C1CCCCC1, the “% Inhibition” value was 3% and the Z score was -0.5.
In the case of N#Cc1ccc(OCC(O)CN2CCCC2c2cccs2)cc1 (configuration not stated), the “% Inhibition” value is reported as -7% and the Z score is reported as 1.02.
With Cc1ccc(Cc2nsc(NCCc3ccc(Cl)cc3Cl)n2)cc1 the “% Inhibition” value was -13% and the Z score was 1.44.
In the case of CCCn1nccc1-c1cnn(CC(=O)NC)c1, the “% Inhibition” value is reported as -14% and the Z score is reported as 1.27.
C[C@H](O)CNC(=O)C1CCCC(F)(F)C1 (some centres not stated) was tested, and the “% Inhibition” value was -5% and the Z score was 1.06.
For C[C@H](Nc1nnc(-c2ccon2)s1)C1(S(C)(=O)=O)CC1, the “% Inhibition” value was -11% and the Z score was 1.4.
With CC(C)Cn1cc(C(F)F)c(C(=O)N2CCCN(C(C)C)CC2)n1 the “% Inhibition” value was 0% and the Z score was -0.02.
Cc1ccnc(-n2nccc2NC(=O)NCCc2c[nH]c3ccccc23)c1 was tested, and the “% Inhibition” value was -9% and the Z score was 1.02.
With O=C1C[C@H](NS(=O)(=O)Cc2ccccc2)CN1C1CC1 the “% Inhibition” value was -10% and the Z score was 1.48.
For CC(C)c1nn(C)cc1-c1ccc(C(F)(F)F)nc1O, the “% Inhibition” value was 2% and the Z score was -0.19.
With N#Cc1ccc(CN2CCC[C@H]2c2ccncc2)c(F)c1 the “% Inhibition” value was -3% and the Z score was 0.55.
For O=C1CNC(=O)N1Cc1nc(C2CCC(F)(F)CC2)cs1, the “% Inhibition” value was -15% and the Z score was 2.79.
With O=C(N1CCOCC1)[C@]1(F)CCCN(Cc2cccnc2)C1 the “% Inhibition” value was -15% and the Z score was 1.29.
In the case of CC(C)c1ccc(C(=O)NC2CCN(c3nnnn3C)CC2)c(O)c1, the “% Inhibition” value is reported as 0% and the Z score is reported as 0.02.
In the case of COc1ccc(C(Nc2nc(C)c3c(n2)CCCC3)[C@H]2C[C@H](O)C2)cn1 (some centres not stated), the “% Inhibition” value is reported as 5% and the Z score is reported as -0.91.
CC(=O)N(c1nc(C=Cc2ccncn2)cs1)C1CC1 was tested, and the “% Inhibition” value was 0% and the Z score was -0.02.
COCc1nc(C(C)C)nc(N2CCN(C(=O)c3cccs3)CC2)c1Cc1cc(C)ccc1C was tested, and the “% Inhibition” value was -1% and the Z score was 0.2.
For CCc1cc(C(=O)N2CC(C)OCC2C)[nH]n1 (configuration not stated), the “% Inhibition” value was 34% and the Z score was -3.88.
CCS(=O)(=O)NCCNc1ccc(C)nn1 was tested, and the “% Inhibition” value was 15% and the Z score was -2.03.
With CC(C)(C1=CCCCC1)c1noc(C2(S(C)(=O)=O)CCCC2)n1 the “% Inhibition” value was -1% and the Z score was 0.17.
CCOC(=O)CC1(S(=O)(=O)Nc2cccc3ccccc23)CC1 was tested, and the “% Inhibition” value was 35% and the Z score was -5.06.
COCC(C)(C)c1noc([C@@H]2Cc3ccccc3O[C@H]2C(F)F)n1 was tested, and the “% Inhibition” value was -7% and the Z score was 1.25.
In the case of O=C(NCCCc1ccccc1)N1CCC[C@@H]1CS(=O)(=O)c1ccccc1, the “% Inhibition” value is reported as -4% and the Z score is reported as 0.69.
With CC(C)OCc1cccc(NC(=O)N2CC[S@+]([O-])C(C)(C)C2)c1 the “% Inhibition” value was -14% and the Z score was 1.72.
Cc1cc(C(=O)NCCOCC(N)=O)cc(Cl)c1Br was tested, and the “% Inhibition” value was -22% and the Z score was 1.97.
For CCc1ccc(NC(=O)c2ccc(N3CC(C)CC(C)C3)c(NS(=O)(=O)c3c(C)cc(C)cc3C)c2)cc1 (configuration not stated), the “% Inhibition” value was -4% and the Z score was 0.45.
CC(C)CN1CCCCC1CNC(C)c1cnccn1 (configuration not stated) was tested, and the “% Inhibition” value was 0% and the Z score was -0.03.
For CCC(C(N)=O)N1CCOC(CO)C1 (configuration not stated), the “% Inhibition” value was -4% and the Z score was 0.56.
For CCS(=O)(=O)N1CC(=O)N(c2cccc(Cl)c2C)[C@](C)(C(=O)NC2CCCCCCC2)C1, the “% Inhibition” value was -2% and the Z score was 0.21.
For CCCN(CC(=O)O)C(=O)c1cc(C)cc(C)c1, the “% Inhibition” value was -7% and the Z score was 1.22.
O=C(Cc1ccccc1)NCCN1CCCC1 was tested, and the “% Inhibition” value was -3% and the Z score was 0.45.
With Cc1c(NC(=O)Cc2ccc(Br)cc2)c(=O)n(-c2ccccc2)n1C the “% Inhibition” value was -13% and the Z score was 1.12.
With Cc1ccc(N2C[C@H]3CC[C@@H](C2)N(Cc2c(C)noc2C)C3=O)nn1 the “% Inhibition” value was -4% and the Z score was 0.46.
CCN(C(=O)[C@H](C)Nc1cn(C)nc1C)C1CCCCC1 was tested, and the “% Inhibition” value was -11% and the Z score was 1.59.
CCC(CC)(CC)NC(=O)[C@H]1CCOC1 was tested, and the “% Inhibition” value was 2% and the Z score was -0.34.
For O=C1CCCCCN1CCC(=O)N1CCc2c(Cl)cccc2C1, the “% Inhibition” value was -19% and the Z score was 1.88.
For O=S1(=O)CC[C@H](Nc2ncnc3c2cnn3-c2ccc(Cl)c(Cl)c2)C1, the “% Inhibition” value was -15% and the Z score was 2.51.
With CCCc1nc(C(=O)N2CCC3(CC2)Cc2cccc(c2)Oc2ccc(cc2)C[C@@H](C(=O)O)NC(=O)CCNC3=O)cs1 the “% Inhibition” value was -11% and the Z score was 1.43.
For Cn1ccc(C(=O)N[C@@H]2COCC[C@@H]2Oc2cccc(F)c2)cc1=O, the “% Inhibition” value was 1% and the Z score was -0.24.
With O=C1NCCC[C@@]12CCN(Cc1nc3c(s1)CCCC3)C2 the “% Inhibition” value was -10% and the Z score was 1.73.
In the case of CC(C)(C)CC(C)(C)NC(=O)Nc1cccc(C(F)(F)F)c1, the “% Inhibition” value is reported as -16% and the Z score is reported as 1.71.
With Cc1cc(-c2ccc(S(=O)(=O)N3CCC(C(=O)N4CCC[C@H](C)C4)CC3)o2)[nH]n1 the “% Inhibition” value was -10% and the Z score was 1.6.
CCN(CCn1cccn1)Cc1cncn1C1CC1 was tested, and the “% Inhibition” value was -7% and the Z score was 1.49.
COc1ccc(NC(=O)COc2ncccn2)c(OC)c1 was tested, and the “% Inhibition” value was -12% and the Z score was 1.39.
For COc1ccccc1C1CCC(C)CN1CC(=O)NC(N)=O (configuration not stated), the “% Inhibition” value was 5% and the Z score was -0.77.
In the case of O=C(NC[C@H](O)CN1CCCC1=O)NC1CCCCC1, the “% Inhibition” value is reported as -14% and the Z score is reported as 2.66.
For O=C1NCCN2CCN(C(=O)C3Cc4ccccc4C3)C[C@@H]12, the “% Inhibition” value was -17% and the Z score was 1.72.
For Cc1cc(C)c(NC(=O)Cn2ncn3c(C)c(C(=O)NCc4ccc(F)cc4)c(C)c3c2=O)c(C)c1, the “% Inhibition” value was 3% and the Z score was -0.4.
In the case of NC(=O)COc1cccc(-c2cn(CC3CCOCC3)nn2)c1, the “% Inhibition” value is reported as -8% and the Z score is reported as 1.05.
For Cc1nnc(NCCN2CCCCCC2)c(C#N)c1C, the “% Inhibition” value was -5% and the Z score was 1.07.
Nc1nc(C2(c3ccc(Cl)cc3)CCCC2)cs1 was tested, and the “% Inhibition” value was 5% and the Z score was -0.62.
For O=C(CCCn1nnnc1CN1CCc2ccccc2C1)NCCc1cscn1, the “% Inhibition” value was -9% and the Z score was 1.62.
In the case of CCc1cnc(C)nc1N1CCC[C@@]2(CCC(=O)N(CCc3c[nH]cn3)C2)C1, the “% Inhibition” value is reported as 2% and the Z score is reported as -0.25.
In the case of CC(CNC1CCN(Cc2ccccn2)CC1C)Cc1cccs1 (configuration not stated), the “% Inhibition” value is reported as -7% and the Z score is reported as 0.62.
For CCCCNC(=O)CN(C)[C@@H](C(=O)O)c1ccc(OC(C)C)cc1, the “% Inhibition” value was 8% and the Z score was -1.07.
In the case of Cc1nc2ccccc2c2oc(C(=O)NC3CCC(C)CC3)cc12 (configuration not stated), the “% Inhibition” value is reported as 4% and the Z score is reported as -0.55.
For COCC1(S(=O)(=O)NC2CCOC2C)CC1 (configuration not stated), the “% Inhibition” value was -4% and the Z score was 0.77.
With CS(=O)(=O)N1CCC[C@H]1C(=O)N1CCc2c(Cl)cccc2C1 the “% Inhibition” value was 0% and the Z score was -0.09.
In the case of O=c1[nH]c(CC2CC2)nc2c1Cc1ccccc1OC2, the “% Inhibition” value is reported as 3% and the Z score is reported as -0.53.
In the case of CN(CCN(C)C(=O)c1ccc(F)cn1)C(=O)c1ccc(F)cn1, the “% Inhibition” value is reported as -8% and the Z score is reported as 0.86.
CC(Cn1cccn1)C(=O)N1CCCC1C1CCCN1C (configuration not stated) was tested, and the “% Inhibition” value was -5% and the Z score was 0.48.
With CN(Cc1ccc(-n2cccn2)cc1)C(=O)c1ncoc1C1CC1 the “% Inhibition” value was -13% and the Z score was 1.17.
For COC(=O)c1cccc(OS(=O)(=O)NC(=O)OC[C@@H]2CCCN3CCCCC23)c1 (some centres not stated), the “% Inhibition” value was 6% and the Z score was -0.88.
In the case of CCC(C)CC(=O)NCC1Cc2cc(C)cc(-c3ccc(OC)nn3)c2O1 (configuration not stated), the “% Inhibition” value is reported as 1% and the Z score is reported as -0.11.
In the case of Cn1cnnc1NC(=O)[C@H](Oc1cccc(Br)c1)c1ccccc1, the “% Inhibition” value is reported as -4% and the Z score is reported as 0.52.
With O=C(CCn1cc(Cl)cn1)N1CCN(c2ccc3[nH]ncc3c2)C(=O)C1 the “% Inhibition” value was -9% and the Z score was 1.29.
